# Experimental data taken from the supplement of paper PMC10037445.
# Whole data set: some 2,900 compounds, median “NF-kB SEAP reporter activity, fold change vs agonist alone” near 0.99, cut for the highest 2% near 2.6. The list shows a part of the results.
# Legend:
# [1] = system: RAW-Dual; test: NF-kB SEAP reporter activity, fold change vs agonist alone; higher = enhanced NF-kB activity; settings: library stock concentration (final ~1000-fold dilution): 10 mM
# Method in brief: (§1)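 Reporter activity is given as fold change relative to agonist-alone wells. To measure it, 50 nL of library stock was pin-tooled onto RAW-Dual macrophages (50,000 cells/well, DMEM, 384-well plates), a PRR agonist followed 1 h later, and cells stayed at 37 °C, 5% CO2. Twenty hours on, supernatant was assayed for IRF (QuantiLuc luminescence) and NF-κB (QuantiBlue, 620 nm absorbance), and wells under 70% of agonist-control IncuCyte confluency in both mask sets were marked cytotoxic.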
# [2] = system: RAW-Dual; test: NF-kB SEAP reporter activity, fold change vs agonist alone; cytotoxicity flag (confluency mask): not cytotoxic; higher = enhanced NF-kB activity
# Method in brief: as §1
# [3] = system: RAW-Dual; test: NF-kB SEAP reporter activity, fold change vs agonist alone; cytotoxicity flag (confluency mask): cytotoxic (confluency <70% of control); higher = enhanced NF-kB activity
# Method in brief: as §1
# [4] = cytotoxicity flag (confluency mask): not cytotoxic, agonist: Imiquimod (TLR7) […]
# [5] = cytotoxicity flag (confluency mask): not cytotoxic, agonist: MPLA (TLR4) […]
# [6] = agonist: ODN 1826 (TLR9) 0.5 ug/mL
# [7] = agonist: Pam2CSK4 (TLR2/6) 0.1 ug/mL
# [8] = agonist: Pam3CSK4 (TLR2/1) 0.1 ug/mL
smiles,measurement,setting,value
C=C1C(=O)OC2C1CC/C(C)=C/CCC1(C)OC21 (stereo not drawn),NF-kB SEAP reporter activity,"[1]; cytotoxicity flag (confluency mask): cytotoxic (confluency <70% of control), agonist: Imiquimod (TLR7) […]",0.154
same,NF-kB SEAP reporter activity,"[1]; cytotoxicity flag (confluency mask): cytotoxic (confluency <70% of control), agonist: MPLA (TLR4) […]",0.205
same,NF-kB SEAP reporter activity,[1]; [4],0.192
same,NF-kB SEAP reporter activity,[1]; [5],0.219
C=C1C(=O)OC2C1CC/C(C)=C/CCC1(C)OC21 (stereo not drawn) (library stock concentration (final ~1000-fold dilution): 10 mM),NF-kB SEAP reporter activity,[2]; agonist: LPS (TLR4) 0.1 ug/mL,0.203
same,NF-kB SEAP reporter activity,[2]; [6],0.187
same,NF-kB SEAP reporter activity,[2]; [7],0.108
same,NF-kB SEAP reporter activity,[2]; [8],0.145
same,NF-kB SEAP reporter activity,[3]; agonist: LPS (TLR4) 0.1 ug/mL,0.33
same,NF-kB SEAP reporter activity,[3]; [6],0.156
same,NF-kB SEAP reporter activity,[3]; [7],0.0678
same,NF-kB SEAP reporter activity,[3]; [8],0.128
Oc1cc(O)c2c(c1)OC(c1ccc(O)c(O)c1)C(O)C2 (stereo not drawn) (library stock concentration (final ~1000-fold dilution): 10 mM),NF-kB SEAP reporter activity,[2]; agonist: LPS (TLR4) 0.1 ug/mL,1.07
same,NF-kB SEAP reporter activity,[2]; [6],0.993
same,NF-kB SEAP reporter activity,[2]; [7],1.06
same,NF-kB SEAP reporter activity,[2]; [8],1.07
Oc1cc(O)c2c(c1)OC(c1ccc(O)c(O)c1)C(O)C2 (stereo not drawn),NF-kB SEAP reporter activity,[1]; [5],1.07
O=C(NCC(O)CN1CCc2ccccc2C1)c1cc(NC2COC2)ncn1 (stereo not drawn) (library stock concentration (final ~1000-fold dilution): 10 mM),NF-kB SEAP reporter activity,[2]; agonist: LPS (TLR4) 0.1 ug/mL,1.03
same,NF-kB SEAP reporter activity,[2]; [6],0.876
same,NF-kB SEAP reporter activity,[2]; [7],1.08
same,NF-kB SEAP reporter activity,[2]; [8],1.24
O=C(NCC(O)CN1CCc2ccccc2C1)c1cc(NC2COC2)ncn1 (stereo not drawn),NF-kB SEAP reporter activity,[1]; [4],0.898
same,NF-kB SEAP reporter activity,[1]; [5],1.06
CC12CCCN1CC1=NNC(=O)c3cc(F)cc4[nH]c2c1c34 (stereo not drawn),NF-kB SEAP reporter activity,[1]; [4],1.23
same,NF-kB SEAP reporter activity,[1]; [5],1.02
CC12CCCN1CC1=NNC(=O)c3cc(F)cc4[nH]c2c1c34 (stereo not drawn) (library stock concentration (final ~1000-fold dilution): 10 mM),NF-kB SEAP reporter activity,[2]; agonist: LPS (TLR4) 0.1 ug/mL,1.03
same,NF-kB SEAP reporter activity,[2]; [6],1.01
same,NF-kB SEAP reporter activity,[2]; [7],1.28
same,NF-kB SEAP reporter activity,[2]; [8],1.55
COc1cc2c(c(OC)c1OC)-c1c(cc3c(c1OC)OCO3)C[C@H](C)[C@](C)(O)[C@H]2OC(=O)c1ccccc1 (library stock concentration (final ~1000-fold dilution): 10 mM),NF-kB SEAP reporter activity,[2]; agonist: LPS (TLR4) 0.1 ug/mL,1.02
same,NF-kB SEAP reporter activity,[2]; [6],0.995
same,NF-kB SEAP reporter activity,[2]; [7],0.833
same,NF-kB SEAP reporter activity,[2]; [8],0.921
COc1cc2c(c(OC)c1OC)-c1c(cc3c(c1OC)OCO3)C[C@H](C)[C@](C)(O)[C@H]2OC(=O)c1ccccc1,NF-kB SEAP reporter activity,[1]; [4],0.922
same,NF-kB SEAP reporter activity,[1]; [5],1
CCCC(=O)Nc1cccc(NC(=O)c2ccccc2Br)c1,NF-kB SEAP reporter activity,[1]; [4],1.06
same,NF-kB SEAP reporter activity,[1]; [5],0.952
CCCC(=O)Nc1cccc(NC(=O)c2ccccc2Br)c1 (library stock concentration (final ~1000-fold dilution): 10 mM),NF-kB SEAP reporter activity,[2]; agonist: LPS (TLR4) 0.1 ug/mL,0.939
same,NF-kB SEAP reporter activity,[2]; [6],0.996
same,NF-kB SEAP reporter activity,[2]; [7],0.966
same,NF-kB SEAP reporter activity,[2]; [8],1.15
Cc1nc(N(C)C(=O)Cc2ccc(-c3ccccn3)cc2)sc1S(N)(=O)=O (library stock concentration (final ~1000-fold dilution): 10 mM),NF-kB SEAP reporter activity,[2]; agonist: LPS (TLR4) 0.1 ug/mL,1.71
same,NF-kB SEAP reporter activity,[2]; [6],0.442
same,NF-kB SEAP reporter activity,[2]; [7],0.948
same,NF-kB SEAP reporter activity,[2]; [8],0.808
Cc1nc(N(C)C(=O)Cc2ccc(-c3ccccn3)cc2)sc1S(N)(=O)=O,NF-kB SEAP reporter activity,[1]; [4],0.584
same,NF-kB SEAP reporter activity,[1]; [5],0.964
O=C(Nc1ccc(OC(F)(F)Cl)cc1)c1cnc(N2CCC(O)C2)c(-c2ccn[nH]2)c1 (stereo not drawn),NF-kB SEAP reporter activity,[1]; [4],0.855
same,NF-kB SEAP reporter activity,[1]; [5],1.42
O=C(Nc1ccc(OC(F)(F)Cl)cc1)c1cnc(N2CCC(O)C2)c(-c2ccn[nH]2)c1 (stereo not drawn) (library stock concentration (final ~1000-fold dilution): 10 mM),NF-kB SEAP reporter activity,[2]; agonist: LPS (TLR4) 0.1 ug/mL,1.26
same,NF-kB SEAP reporter activity,[2]; [6],0.686
same,NF-kB SEAP reporter activity,[2]; [7],0.635
same,NF-kB SEAP reporter activity,[2]; [8],0.506
COc1nc(C)cnc1NS(=O)(=O)c1cccnc1-c1ccc(-c2nnco2)cc1,NF-kB SEAP reporter activity,[1]; [4],0.819
same,NF-kB SEAP reporter activity,[1]; [5],0.896
COc1nc(C)cnc1NS(=O)(=O)c1cccnc1-c1ccc(-c2nnco2)cc1 (library stock concentration (final ~1000-fold dilution): 10 mM),NF-kB SEAP reporter activity,[2]; agonist: LPS (TLR4) 0.1 ug/mL,1.06
same,NF-kB SEAP reporter activity,[2]; [6],1.02
same,NF-kB SEAP reporter activity,[2]; [7],1.01
same,NF-kB SEAP reporter activity,[2]; [8],1.11
CC(COc1ccccc1)N(CCCl)Cc1ccccc1.Cl (stereo not drawn),NF-kB SEAP reporter activity,[1]; [4],0.881
same,NF-kB SEAP reporter activity,[1]; [5],0.687
CC(COc1ccccc1)N(CCCl)Cc1ccccc1.Cl (stereo not drawn) (library stock concentration (final ~1000-fold dilution): 10 mM),NF-kB SEAP reporter activity,[2]; agonist: LPS (TLR4) 0.1 ug/mL,0.31
same,NF-kB SEAP reporter activity,[2]; [6],0.918
same,NF-kB SEAP reporter activity,[2]; [7],0.258
same,NF-kB SEAP reporter activity,[2]; [8],0.925
C/C(O)=C(\C#N)C(=O)Nc1ccc(C(F)(F)F)cc1 (library stock concentration (final ~1000-fold dilution): 10 mM),NF-kB SEAP reporter activity,[2]; agonist: LPS (TLR4) 0.1 ug/mL,0.789
same,NF-kB SEAP reporter activity,[2]; [6],1.3
same,NF-kB SEAP reporter activity,[2]; [7],0.564
same,NF-kB SEAP reporter activity,[2]; [8],0.688
C/C(O)=C(\C#N)C(=O)Nc1ccc(C(F)(F)F)cc1,NF-kB SEAP reporter activity,[1]; [4],2.08
same,NF-kB SEAP reporter activity,[1]; [5],1.03
C[N+]1(C)C2CCC1CC(OC(=O)C(O)c1ccccc1)C2 (stereo not drawn) (library stock concentration (final ~1000-fold dilution): 10 mM),NF-kB SEAP reporter activity,[2]; agonist: LPS (TLR4) 0.1 ug/mL,0.856
same,NF-kB SEAP reporter activity,[2]; [6],0.973
same,NF-kB SEAP reporter activity,[2]; [7],1.08
same,NF-kB SEAP reporter activity,[2]; [8],1.03
C[N+]1(C)C2CCC1CC(OC(=O)C(O)c1ccccc1)C2 (stereo not drawn),NF-kB SEAP reporter activity,[1]; [4],0.931
same,NF-kB SEAP reporter activity,[1]; [5],1.01
CN(C)c1ncnc2nc[nH]c12 (library stock concentration (final ~1000-fold dilution): 10 mM),NF-kB SEAP reporter activity,[2]; agonist: LPS (TLR4) 0.1 ug/mL,0.948
same,NF-kB SEAP reporter activity,[2]; [6],0.973
same,NF-kB SEAP reporter activity,[2]; [7],1.08
same,NF-kB SEAP reporter activity,[2]; [8],1.01
CN(C)c1ncnc2nc[nH]c12,NF-kB SEAP reporter activity,[1]; [4],0.939
same,NF-kB SEAP reporter activity,[1]; [5],0.995
